Hit rate of the full screen: of about 310,000 compounds, about 2,200 (0.71%) showed an effect of 50% or more. The effect is printed as a negative number. The list shows a part of the results.
molecular target: human ether-à-go-go-related gene (hERG) potassium channel (human, UniProt Q12809); assay: primary screen, population patch clamp on CHO cells stably expressing hERG
Sequence (Q12809 whole entry, looked up): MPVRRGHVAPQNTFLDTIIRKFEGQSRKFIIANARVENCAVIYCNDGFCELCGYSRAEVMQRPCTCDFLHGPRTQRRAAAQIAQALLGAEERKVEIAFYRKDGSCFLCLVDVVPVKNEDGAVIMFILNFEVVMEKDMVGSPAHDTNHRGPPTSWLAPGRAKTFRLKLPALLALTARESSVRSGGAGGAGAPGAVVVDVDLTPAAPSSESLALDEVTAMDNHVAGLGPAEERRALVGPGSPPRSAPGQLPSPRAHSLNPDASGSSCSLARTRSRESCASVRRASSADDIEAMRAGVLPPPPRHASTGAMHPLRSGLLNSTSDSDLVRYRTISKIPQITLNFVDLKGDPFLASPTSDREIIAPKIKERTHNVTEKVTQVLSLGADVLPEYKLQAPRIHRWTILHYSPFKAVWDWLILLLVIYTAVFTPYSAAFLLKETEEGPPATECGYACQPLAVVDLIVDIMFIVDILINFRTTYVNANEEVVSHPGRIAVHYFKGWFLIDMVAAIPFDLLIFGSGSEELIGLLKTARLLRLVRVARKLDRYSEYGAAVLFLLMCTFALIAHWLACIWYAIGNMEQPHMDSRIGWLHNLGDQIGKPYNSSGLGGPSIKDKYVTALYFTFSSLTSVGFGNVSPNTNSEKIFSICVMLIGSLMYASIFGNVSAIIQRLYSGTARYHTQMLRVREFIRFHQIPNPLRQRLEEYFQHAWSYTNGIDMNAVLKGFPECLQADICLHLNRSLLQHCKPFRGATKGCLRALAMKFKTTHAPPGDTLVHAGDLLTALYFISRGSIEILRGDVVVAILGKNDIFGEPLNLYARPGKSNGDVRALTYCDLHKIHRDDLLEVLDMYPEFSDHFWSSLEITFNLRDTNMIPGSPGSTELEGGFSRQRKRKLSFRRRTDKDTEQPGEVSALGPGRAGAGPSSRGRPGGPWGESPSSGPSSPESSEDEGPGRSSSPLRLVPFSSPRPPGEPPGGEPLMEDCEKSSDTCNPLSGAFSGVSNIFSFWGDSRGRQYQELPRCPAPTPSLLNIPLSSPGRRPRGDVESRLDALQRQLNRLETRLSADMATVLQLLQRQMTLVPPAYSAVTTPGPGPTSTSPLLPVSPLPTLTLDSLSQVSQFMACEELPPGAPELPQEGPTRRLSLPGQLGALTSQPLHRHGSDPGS

SMILES	hERG current change (%, negative = inhibition) at 1uM [%]
O=C(Nc1cccc(S(=O)(=O)N2CCCCCC2)c1)C1CCN(C(=O)c2ccc(Cl)cc2)CC1	-10.9
N#Cc1cnn2c(-c3cccc(C(F)(F)F)c3)ccnc12	1.86
O=c1c(Cl)c(NCc2ccccc2Cl)cnn1C12CC3CC(CC(C3)C1)C2	2.59
CC12OC1C1(O)CCCC1=CC2=O (stereo not drawn)	13.1
Cc1cc(C)n(C(=O)Cn2nc(C)c(Cl)c2C)n1	-0.551
COc1ccc(OCC(=O)OCCN(C)C)cc1.Cl	6.29
COCc1ccc([C@@H]2C[C@H]3CN(Cc4cccnc4)C(=O)[C@]34CCCN24)o1	5.22
COc1ccc(-n2c(COc3ccc4c(c3)OCO4)nnc2SCC(=O)O)cc1	11.3
CCS(=O)(=O)n1nc(-c2ccccc2)nc1N	8.92
COC(=O)c1nnn(CC(=O)NC(=O)Nc2cccc(C)c2C)c1C(=O)OC	15.3
CC(=O)NC1C(=O)N(CCN2CCOCC2)c2ccc(Br)cc21.Cl (stereo not drawn)	4.3
COc1ccc(-c2cc(=O)c3ccccc3n2C)cc1	4.83
Cc1cccc(NC(=O)CC2c3ccccc3Oc3ccccc32)c1	10.1
Fc1ccc2c(c1)/C(=N/Nc1ccccn1)CCS2	11.2
CN(C)CCNC(=O)c1[nH]nc2c1CCc1ccccc1-2	5.79
CC(=O)OC1CSc2nc3ccccc3n2C1 (stereo not drawn)	-2.13
CCOc1cc2c(cc1OCC)C(c1ccc(OC)cc1)N(c1ccccc1)C(=O)C2 (stereo not drawn)	1.2
COc1ccc(-c2nc3cc(NC(=O)c4ccc5c(c4)OCO5)ccc3o2)cc1	1.37
Cc1cc(C)n(C(=O)c2ccc([N+](=O)[O-])cc2Cl)n1	14.9

SMILES	hERG current change (%, negative = inhibition) at 1uM [%]
Cc1ccc(OCCOCCNC(C)(C)C)c([N+](=O)[O-])c1.O=C(O)C(=O)O	3.73
CCNC(=O)CN(c1ccc(Br)c(C)c1)S(C)(=O)=O	6.53
COc1ccc(Nc2nc(N)nc(CSc3nc(C)cc(C)n3)n2)cc1	12.7
O=C(COC(=O)/C=C/c1cccc(Cl)c1)NCCc1ccccc1	18.4
Cc1cccc(NC(=O)c2ccc(S(=O)(=O)N(C)C)cc2)c1	3.38
O=C(COC(=O)c1ccc(Cl)nc1)NC1CCCCCC1	9.48
O=C(CSc1ncnc2[nH]ncc12)Nc1nc(-c2ccc(F)c(F)c2)cs1	36.9
Oc1cccc(C=Nc2cccc3ccccc23)c1O	17.5
C=C(C)C(=O)Nc1cccnc1Oc1ccc(F)cc1	8.31
CCN(CC)S(=O)(=O)c1ccc(C(=O)NCc2n[nH]c(=S)n2-c2ccccc2OC)cc1	16.1
Cc1ccc(NC(=O)CCC(=O)OCc2ccc(Br)cc2)cc1	11.5
Cc1cc(Cl)c2oc(C(=O)N3CCCCC3CCN3CCCC3=O)c(C)c2c1 (stereo not drawn)	7.63
CNC(=O)c1c[nH]c2ccc(S(=O)(=O)Nc3cccc(SC)c3)cc2c1=O	13.7
CC(C)c1ccc(S(=O)(=O)c2nnn3c2nc(N2CCCCC2)c2ccccc23)cc1	12.3
Nc1cnc(CNc2ccccc2Cl)cn1	14
CCOc1ccc(C(=O)NCc2ccccc2OC)cc1	7.6
COCCCNC(=O)Cn1nnc(-c2ccccc2NC(=O)c2ccccc2F)n1	-5.11
Cc1ccc(CN2CCNC(=O)C2CC(=O)N(C)C(C2CC2)C2CC2)o1 (stereo not drawn)	-3.85
CN1CCN(C(=O)c2ccccc2-c2nc(-c3ccc(Cl)cc3)no2)CC1	-44.5

SMILES	hERG current change (%, negative = inhibition) at 1uM [%]
Clc1ccc(C2=CSC3=NCCN23)c(Cl)c1.[Br-]	-24.4
COc1ccc(CNC(=O)C2CCN(S(=O)(=O)c3ccc4c(c3)NC(=O)CO4)CC2)cc1	8.22
CCc1ccc(-c2nc(CS(=O)CC(=O)NCc3ccco3)c(C)o2)cc1 (stereo not drawn)	4.83
C=CCn1c(O)c(N=NC(=S)Nc2ccc(OC)cc2)c2ccccc21	4.69
O=C(OC(C(=O)O)C(OC(=O)c1ccccc1)C(=O)NCc1ccccc1)c1ccccc1 (stereo not drawn)	8.21
Cc1ccccc1NC(=S)N/N=C1\CC(C)(C)Oc2ccc(O)cc21	13.4
CC(=O)Nc1ccccc1NC(=O)c1ccc(C)cc1C	18.3
COc1ccc(C2=C(C)C(N3CCN(C(=O)c4ccco4)CC3)=NS2(=O)=O)cc1	3.01
CCCCNC(=O)CCc1c(C)nc2nc(-c3cc(OC)cc(OC)c3)nn2c1C	8.34
CC(C)NC(=O)COC(=O)c1cccc(NS(=O)(=O)/C=C/c2ccccc2)c1	1.59
O=c1[nH]c(-c2ccccc2F)nc2c1sc(=S)n2Cc1ccccc1	13.7
Cc1nn(-c2ccccc2)c(NC(=O)c2cccs2)c(-c2ccccc2Cl)c1=O	9.23
COc1ccc(C(C#N)N2CCC(c3ccccc3)=N2)cc1 (stereo not drawn)	17.5
Cc1nn(-c2ccccc2)c(C)c1C(=O)OCC(=O)Nc1ccccc1F	8.91
COc1ccc(CCN(C)c2ccc(S(=O)(=O)N3CCCC3)cn2)cc1OC	1.16
COC(=O)C1C2CCC(C2)C1C(=O)OCC(=O)c1ccccc1 (stereo not drawn)	5.5
Cc1ccc(N=C(NOCc2ccc(Cl)cc2Cl)c2nonc2N)c(C)c1	3.28
N/C(=N\OS(=O)(=O)c1cc(Cl)ccc1Cl)c1ccncc1	-3.14
C[C@H](NC(=O)N1C[C@H]2C[C@@H](C1)c1cccc(=O)n1C2)C(=O)Nc1ccc(F)c(F)c1	6.72

Reference: PMC4336329 (PLoS ONE, 2015)
